Reference: US8536307B2, “Anticalins” (Pieris AG, priority 1997, dated 2013)

Assay: ELISA, binding of anticalins to immobilized BSA-fluorescein conjugate
Conditions: periplasmatic protein extract, absorption at 405 nm, unconjugated BSA as control

B1: Bbp: Recombinant bilin-binding protein from Pieris brassicae (modified, encoded on pBBP21/pBBP22), produced as a control (protein)
chain: DVYHDGACPEVKPVDNFDWSQYHGKWWEVAKYPNSVEKYGKCGWAEYTPEGKSVKVSNYHVIHGKEYFIEGTAYPVGDSKIGKIYHSLTYGGVTKENVFNVLSTDNKNYIIGYYCKYDEDKKGHQDFVWVLSRSMVLTGEAKTAVENYLIGSPVVDSQKLVYSDFSEAACKVNNLAEAKVLANRELDKYGVSDYYKNLINNAKTVEGVKALIDEILAALP
modifications: left off: small tags and cut ends
binding signal in ELISA: practically no binding
